Test results taken from publication PMC6919601, “Identification of Plasmodium dipeptidyl aminopeptidase allosteric inhibitors by high throughput screening” (PLoS ONE, 2019).
Out of some 110,000 compounds screened, about 230 (0.21%) showed an effect of 50% or more. The list shows a part of the results.

These molecules were tested against DPAP1 (Plasmodium falciparum, UniProt Q8IIJ9) (assay: primary screen, percent inhibition; read by cleavage of a fluorogenic dipeptide substrate; higher = more effect of the substance).
DPAP1, sequence (Q8IIJ9 whole entry, looked up): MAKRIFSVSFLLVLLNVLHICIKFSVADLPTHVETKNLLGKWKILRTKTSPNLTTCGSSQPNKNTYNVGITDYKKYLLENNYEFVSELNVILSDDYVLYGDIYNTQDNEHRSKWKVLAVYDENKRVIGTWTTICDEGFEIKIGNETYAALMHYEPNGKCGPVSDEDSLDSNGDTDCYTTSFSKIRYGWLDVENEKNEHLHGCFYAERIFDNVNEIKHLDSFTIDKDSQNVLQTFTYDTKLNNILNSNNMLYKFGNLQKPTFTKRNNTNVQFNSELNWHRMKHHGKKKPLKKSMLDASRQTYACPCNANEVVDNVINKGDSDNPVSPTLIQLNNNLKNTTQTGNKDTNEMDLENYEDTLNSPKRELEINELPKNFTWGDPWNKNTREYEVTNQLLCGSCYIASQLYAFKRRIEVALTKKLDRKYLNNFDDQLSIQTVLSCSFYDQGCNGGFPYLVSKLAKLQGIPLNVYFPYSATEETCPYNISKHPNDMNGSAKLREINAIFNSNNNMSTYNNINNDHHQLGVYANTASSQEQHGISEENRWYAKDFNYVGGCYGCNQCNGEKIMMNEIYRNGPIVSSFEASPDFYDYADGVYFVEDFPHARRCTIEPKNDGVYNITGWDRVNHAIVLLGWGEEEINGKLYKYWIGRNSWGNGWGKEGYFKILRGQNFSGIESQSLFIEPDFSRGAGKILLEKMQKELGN
Set-up: species or system P. falciparum D10 trophozoite lysates; single well
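Note: 30 min substrate incubation versus DMSO and 10 µM JCP410 controls.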

| SMILES | % Inhibition @ 10 uM [%] |
| --- | --- |
| N#C/C(=C\c1c[nH]nc1-c1ccccc1)c1nc2ccccc2[nH]1 | -6.06 |
| CCCc1nn(-c2ccc(F)cc2)c(O)c1/C=N/CCc1ccccc1 | 0.658 |
| O=C(CNS(=O)(=O)c1ccccc1)N1CCc2ccccc2C1 | -0.795 |
| Cc1nc2c3ccccc3n3c(CCCC(=O)N4CCN(Cc5ccccc5)CC4)nnc3n2n1 | 17.9 |
| COc1ccccc1/C=C1/OC(=O)c2c1cc(C)nc2O | 2.18 |
| COc1ccc(S(=O)(=O)N2CCN(c3ccc(F)cc3)CC2)cc1 | 2.26 |
| COC(=O)c1ccc(C2Oc3ccc(OC)cc3C3CC(c4ccc(OC)cc4)=NN32)cc1 (stereo not drawn) | 15.8 |
| CC(=O)c1ccc(NC(=O)c2ccc(NC(=O)c3ccco3)cc2)cc1 | -6.44 |
| Cc1ccc(S(=O)(=O)N(CC(=O)NC(C)(C)C)Cc2cccc(C)c2)cc1 | 2.76 |
| O=S1(=O)C(/C=N/C2CC2)=C(O)c2sccc2N1Cc1ccc(F)cc1 | -1.43 |
| Clc1cccc(N2CCN(C3CCC(c4ccccc4)CC3)CC2)c1 (stereo not drawn) | -1.21 |
| CCCN1CCC(NCc2ccccc2F)CC1 | -4.14 |
| CNC(=O)/C(C#N)=C/c1c(Oc2ccc(Br)cc2)nc2ccccn2c1=O | 1.19 |
| O=C(Nc1ccc(O)cc1)c1ccco1 | -1.56 |
| Cc1cccc(OCC(=O)N2CCC(C(N)=O)CC2)c1C | -10.2 |
| O=C(c1cccs1)n1nnc2ccccc21 | -0.178 |
| COc1ccc(OC)c(C2C3=C(O)CCCC3=NC(C)=C2C(=O)Nc2c(F)cccc2F)c1 (stereo not drawn) | -5.34 |
| COc1ccc(OC)c([N+]2=C3CCCCCN3C(O)(c3ccc4c(c3)OCCO4)C2)c1 (stereo not drawn) | 5.08 |
| CC1=C(C(=O)OCc2ccccc2)C(c2ccccc2F)C(C#N)=C(N)O1 (stereo not drawn) | 3.03 |
| O=C(NCCc1ccccc1)C1CCC(CNS(=O)(=O)c2cccs2)CC1 (stereo not drawn) | -2.56 |
| COc1cc(S(=O)(=O)N2CCC(C)CC2)c(OC)cc1Cl | -1.2 |
| O=C(Nc1sc2c(c1C(=O)NC1CCS(=O)(=O)C1)CCCC2)c1ccccc1Br (stereo not drawn) | -0.132 |
| COc1cc2c(cc1OC)CN(Cc1ccc(OC(F)(F)F)cc1)CC2 | 1.62 |
| Oc1ccc(C(=S)N2CCCCC2)cc1 | -3.27 |

| SMILES | % Inhibition @ 10 uM [%] |
| --- | --- |
| C=C(N[C@@H](CCc1ccccc1)C(=O)CCS(=O)(=O)c1ccc2ccccc2c1)[C@H](CC(C)C)NC(=O)C1CCNCC1 | 0.744 |
| CN(Cc1ccccc1)C(=O)CNC(=O)Cn1cnc2sc3c(c2c1=O)CCCC3 | 10.1 |
| COc1ccc(CN(C(=O)c2cc(=O)c3ccccc3o2)C2CCS(=O)(=O)C2)cc1 (stereo not drawn) | 0.248 |
| O=C(CCCn1sc2ccccc2c1=O)n1ccnc1 | 4.79 |
| COc1cc(C2CC(=O)Nc3c2c(=O)n(C)c(=O)n3C)ccc1O (stereo not drawn) | 0.231 |
| OC1CCCN(Cc2ccc(OC(F)(F)F)cc2)C1 (stereo not drawn) | 1.62 |
| N#Cc1c(-c2ccccc2)ncnc1N1CCCCC1 | -5.23 |
| O=C(NC1CCCC1)c1ccccc1 | -4.13 |
| O=C1c2[nH]nc(-c3ccccc3O)c2C(c2ccc(Cl)cc2)N1CCO (stereo not drawn) | -4.95 |
| Oc1ccc(Nc2nc3nonc3nc2Nc2ccc(O)cc2)cc1 | -4.26 |
| c1ccc2[nH]c(CCn3c4c(c5ccccc53)CCCC4)nc2c1 | 6.66 |
| Cc1ccc(CCNS(=O)(=O)c2c(C)nc3sccn3c2=O)cc1 | 4.95 |
| CCCCC12CN3CC(C)(CN(C1)C3c1ccc(C(C)C)cc1)C2=O (stereo not drawn) | -3.49 |
| O=C(NCCN1CCc2ccccc2C1)c1cc2ccc3cccnc3c2[nH]1 | 4.44 |
| O=C(NCCCn1ccnc1)c1cnn2c(C(F)(F)F)cc(-c3ccc(Br)cc3)nc12 | 1.4 |
| CCOc1cccc(NC(=O)C2CC(=O)N(C)/C(=N/c3ccccc3OC)S2)c1 (stereo not drawn) | -1.43 |
| Cc1c(C2(c3c(C)n(C)n(-c4ccccc4)c3=O)C(=O)N(C)c3ccc([N+](=O)[O-])cc32)c(=O)n(-c2ccccc2)n1C | 6.8 |
| Cc1nn(CC(=O)NCCN2CCCC2)c(=O)c2cc3cc(F)ccc3n12 | 1.68 |
| CC(C)C[C@H](NC(=O)OCc1ccccc1)C(=O)NC(C#N)CC(C)S(C)(=O)=O (stereo partly drawn) | -1.41 |
| Fc1ccc(CN2CCN(c3ccccc3)CC2)c(F)c1 | -5.5 |
| Cc1ccc(-c2cc(C(=O)O)c3cc4c(C(=O)O)cc(-c5ccc(C)o5)nc4cc3n2)o1 | 6.79 |
| CCc1cccc(CC)c1NC(=O)CCCC(=O)O | 0.658 |
| Cc1n[nH]c(C)c1CCc1nc2c3ccccc3nc(SCc3ccc(C#N)cc3)n2n1 | 6.18 |
| Cc1cccc(-c2nc(N3CCCCCC3)c3ccccc3n2)c1 | 2.38 |

| SMILES | % Inhibition @ 10 uM [%] |
| --- | --- |
| CCn1c(SCc2ccccc2Cl)nc2c1c(=O)[nH]c(=O)n2C | -2.89 |
| Cc1c(CN2CCC(C)CC2)c(=O)n(-c2ccccc2)n1C | -5.94 |
| Cc1cccc(CS(=O)(=O)Cc2ccc(C(=O)NCc3ccccc3Cl)o2)c1 | 2.35 |
| COc1cc(Br)cc2c1Oc1nc(-c3cc(OC)c(OC)c(OC)c3)nc(O)c1C2 | 0.655 |
| COCCNC(=O)CCCc1cc(-c2ccc(OC)cc2)on1 | 0.44 |
| CCc1ccccc1NC(=O)c1ccccc1[N+](=O)[O-] | 9.41 |
| Cc1nc(/N=C(\N)Nc2ccc3c(c2)OCCO3)nc(O)c1C | 0.0265 |
| COc1ccc(CCNC(=O)c2sc3nc(-c4ccncc4)ccc3c2N)cc1OC | -2.91 |
| CC1CCCCN1C(=O)Nc1cn(C)c(=O)c2ccccc12 (stereo not drawn) | 3.96 |
| CCCn1c2ccc(C)cc2c2nnc(SCCN3CCOCC3)nc21 | 3.36 |
| Clc1cccc(N2CCN(C/C=C/c3ccccc3)CC2)c1 | 2.1 |
| Cc1ccc(S(=O)(=O)/N=C(\N)Nc2nc(C)c3cc(C)cc(C)c3n2)cc1 | 0.032 |
| CCOC(=O)C1=C(CN(C)Cc2ccccc2)NC(=O)NC1c1ccc(Cl)cc1 (stereo not drawn) | -1.03 |
| CC1=C(C)CC(C(=O)N2CCN(C/C=C/c3ccccc3)CC2)C(C(=O)O)C1 (stereo not drawn) | -5.26 |
| COC(=O)C1=C(C)N(Cc2ccc(OC)cc2)C(=O)C1 | -1.92 |
| CCOC(=O)c1ccc(-n2cc3c(c2-c2ccc(OC)cc2)c(=O)n(C)c(=O)n3C)cc1 | -0.386 |
| COc1ccccc1OCC(=O)Nc1nc(-c2ccc(S(=O)(=O)N3CCOCC3)cc2)cs1 | 3.56 |
| Cc1ccc(C2OC3(C(=O)c4ccccc4C3=O)C3C(=O)N(Cc4ccccc4)C(=O)C23)cc1 (stereo not drawn) | 1.61 |
| CN(C)CCCNC1CCc2ccccc2C1 (stereo not drawn) | -7.02 |
| Nc1nc2c(s1)CCc1c-2no[n+]1[O-] | -7.92 |
| CCC(C(=O)NC(C)c1ccc2c(c1)OCCO2)n1ncn2c(cc3occc32)c1=O (stereo not drawn) | 3 |
| CCC(COc1ccc(-c2ccc(OC)cc2)nn1)NC(=O)c1cnsc1 (stereo not drawn) | -6.56 |
| Cc1cc(S(=O)(=O)NCCC23CC4CC(CC(C4)C2)C3)ccc1Cl | 0.0289 |
| Cc1noc(C(=O)Nc2cccnc2Cl)c1Cl | -7.13 |

| SMILES | % Inhibition @ 10 uM [%] |
| --- | --- |
| CC(CNC(=O)c1cc(-c2ccc(Br)cc2)[nH]n1)c1ccccc1 (stereo not drawn) | 2.79 |
| Cc1ccc(N(CCO)S(=O)(=O)c2ccc(NC3=NS(=O)(=O)c4ccccc43)cc2)cc1 | 2.76 |
| Cc1nc(SCC(=O)c2ccccc2)c(C#N)c(C)c1Cl | -0.25 |
| CCc1ccc(-n2c(C)nnc2SCc2nc(-c3ccc(OC)c(OC)c3)no2)cc1 | -0.45 |
| CCN(c1ccccc1)S(=O)(=O)c1ccc(NC(=O)c2ccc(F)cc2)cc1 | 8.18 |
| CN1C(=O)c2ccccc2C(C(=O)NCc2ccco2)C1c1c[nH]c2ccccc12 (stereo not drawn) | -5.2 |
| CN(Cc1cccc(Cl)c1)CC(O)c1ccccc1 (stereo not drawn) | -3.5 |
| CCCCC(=N)C1=C(O)CC(C)(C)CC1=O | 2.08 |
| O=S(=O)(Nc1ccccc1)c1ccc2c(c1)Cc1cc(S(=O)(=O)Nc3ccccc3)ccc1-2 | 0.913 |
| COc1cc(C2CC(=O)NC(C)=C2C(=O)OCC2CCCCC2)c(OC)cc1Br (stereo not drawn) | 4.23 |
| COC(=O)Nc1ccc2c(c1)N(C(=O)CCN1CCN3CCCC3C1)c1ccccc1S2 (stereo not drawn) | -0.865 |
| Cc1nc2c(-c3ccccc3)c(C)nn2c(C)c1CCC(=O)NCc1ccco1 | -6.03 |
| Cc1cc(C)c(C)c(S(=O)(=O)NCc2ccc(C(=O)N3CC(C)OC(C)C3)cc2)c1C (stereo not drawn) | 2.17 |
| NC(=O)c1c(NC(=O)c2cccc(C(F)(F)F)c2)sc2c1CCCC2 | 1.03 |
| CCn1c(C(=O)N2CCC(C(=O)NC(C)CCc3ccccc3)CC2)cc2sccc21 (stereo not drawn) | 3.4 |
| CC(C)c1ccc(OCC(=O)Nc2ccc(S(=O)(=O)Nc3nccs3)cc2)cc1 | -3.26 |
| NC(=O)CSc1nc(-c2ccccc2)nc2c1Cc1c(ccc3ccccc13)O2 | 2.04 |
| COCCn1c(C)cc(C(=O)CSc2ncnc3scc(-c4ccccc4)c23)c1C | -2.85 |
| COc1cc(/C=C2/C(=O)ON=C2C)cc(Br)c1OCc1ccccc1F | -3.96 |
| C[C@H](NC(=O)Cc1ccccc1)c1ccccc1 | -1.59 |
| O=C(NC1CCN(Cc2ccccc2)CC1)c1ccc(CS(=O)c2ccccc2Cl)o1 (stereo not drawn) | -0.716 |
| O=C1CC(SCc2ccccc2)C(=O)N1c1ccc(Br)cc1 (stereo not drawn) | -1.98 |
| CC1CCCCN1C(=O)C(Cc1ccccc1)N1C(=O)C2CCCCC2C1=O (stereo not drawn) | 3.54 |
| CC(/C=C(\O)c1ccccc1)=N\c1ccc(C(=O)Nc2cccc3ccccc23)cc1 | 0.937 |
